Source: paper PMC9911399, “Two distinct binding modes provide the RNA-binding protein RbFox with extraordinary sequence specificity”
Residue numbers refer to the chain shown, from its start. This is one part of the list.

T1: RBFOX1 RRM RbFoxmut (Fox-RRM*) (Homo sapiens, UniProt Q9NWB1 109-208, R118D;E147R;N151S;E152T)
T1 sequence: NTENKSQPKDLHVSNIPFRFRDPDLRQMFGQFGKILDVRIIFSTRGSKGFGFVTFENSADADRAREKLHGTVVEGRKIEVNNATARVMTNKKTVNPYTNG

B1: UCUGCGC (DNA:RNA)
RNA: GGGAGACCGGAAUUCAGAUUGUCCUCUGCGCUUAAAUCCCGUCGUAGCCACCA
DNA 1: CAATCTGAATTCCGGTCTCCC
DNA 2: TGGTGGCTACGACGGGATT
B2: UAGUAUC (DNA:RNA)
RNA: B1 RNA with C26A, U27G, G28U, C29A, G30U
DNA 1: CAATCTGAATTCCGGTCTCCC
DNA 2: TGGTGGCTACGACGGGATT
B3: UUCCGAC (DNA:RNA)
RNA: B1 RNA with C26U, U27C, G28C, C29G, G30A
DNA 1: CAATCTGAATTCCGGTCTCCC
DNA 2: TGGTGGCTACGACGGGATT
B4: CUAAAAC (DNA:RNA)
RNA: B1 RNA with U25C, C26U, U27A, G28A, C29A, G30A
DNA 1: CAATCTGAATTCCGGTCTCCC
DNA 2: TGGTGGCTACGACGGGATT
B5: CCAUAUG (DNA:RNA)
RNA: B1 RNA with U25C, U27A, G28U, C29A, G30U, C31G
DNA 1: CAATCTGAATTCCGGTCTCCC
DNA 2: TGGTGGCTACGACGGGATT
B6: CGAAAUA (DNA:RNA)
RNA: GGGAGACCGGAAUUCAGAUUGUCCCGAAAUAUUAAAUCCCGUCGUAGCCACCA
DNA 1: CAATCTGAATTCCGGTCTCCC
DNA 2: TGGTGGCTACGACGGGATT
B7: AGUUGUC (DNA:RNA)
RNA: B6 RNA with C25A, A27U, A28U, A29G, A31C
DNA 1: CAATCTGAATTCCGGTCTCCC
DNA 2: TGGTGGCTACGACGGGATT
B8: CAUUCGC (DNA:RNA)
RNA: B1 RNA with U25C, C26A, G28U
DNA 1: CAATCTGAATTCCGGTCTCCC
DNA 2: TGGTGGCTACGACGGGATT
B9: GGACGGG (DNA:RNA)
RNA: B6 RNA with C25G, A28C, A29G, U30G, A31G
DNA 1: CAATCTGAATTCCGGTCTCCC
DNA 2: TGGTGGCTACGACGGGATT
B10: UAACGCA (DNA:RNA)
RNA: B6 RNA with C25U, G26A, A28C, A29G, U30C
DNA 1: CAATCTGAATTCCGGTCTCCC
DNA 2: TGGTGGCTACGACGGGATT
B11: GUGUUAC (DNA:RNA)
RNA: B1 RNA with U25G, C26U, U27G, G28U, C29U, G30A
DNA 1: CAATCTGAATTCCGGTCTCCC
DNA 2: TGGTGGCTACGACGGGATT
B12: UGGCACG (DNA:RNA)
RNA: B6 RNA with C25U, A27G, A28C, U30C, A31G
DNA 1: CAATCTGAATTCCGGTCTCCC
DNA 2: TGGTGGCTACGACGGGATT
B13: AAAGGGU (DNA:RNA)
RNA: B1 RNA with U25A, C26A, U27A, C29G, C31U
DNA 1: CAATCTGAATTCCGGTCTCCC
DNA 2: TGGTGGCTACGACGGGATT
B14: UACCAGU (DNA:RNA)
RNA: B1 RNA with C26A, U27C, G28C, C29A, C31U
DNA 1: CAATCTGAATTCCGGTCTCCC
DNA 2: TGGTGGCTACGACGGGATT
B15: CCCAAGG (DNA:RNA)
RNA: B6 RNA with G26C, A27C, U30G, A31G
DNA 1: CAATCTGAATTCCGGTCTCCC
DNA 2: TGGTGGCTACGACGGGATT
B16: GGUAUCG (DNA:RNA)
RNA: B6 RNA with C25G, A27U, A29U, U30C, A31G
DNA 1: CAATCTGAATTCCGGTCTCCC
DNA 2: TGGTGGCTACGACGGGATT
B17: GAAUGUU (DNA:RNA)
RNA: B6 RNA with C25G, G26A, A28U, A29G, A31U
DNA 1: CAATCTGAATTCCGGTCTCCC
DNA 2: TGGTGGCTACGACGGGATT
B18: CGCAGUC (DNA:RNA)
RNA: B6 RNA with A27C, A29G, A31C
DNA 1: CAATCTGAATTCCGGTCTCCC
DNA 2: TGGTGGCTACGACGGGATT
B19: UCUUACG (DNA:RNA)
RNA: B1 RNA with G28U, C29A, G30C, C31G
DNA 1: CAATCTGAATTCCGGTCTCCC
DNA 2: TGGTGGCTACGACGGGATT
B20: GUUACCC (DNA:RNA)
RNA: B1 RNA with U25G, C26U, G28A, G30C
DNA 1: CAATCTGAATTCCGGTCTCCC
DNA 2: TGGTGGCTACGACGGGATT
B21: CUUAGAA (DNA:RNA)
RNA: B6 RNA with G26U, A27U, A29G, U30A
DNA 1: CAATCTGAATTCCGGTCTCCC
DNA 2: TGGTGGCTACGACGGGATT
B22: GGCGUGC (DNA:RNA)
RNA: B1 RNA with U25G, C26G, U27C, C29U
DNA 1: CAATCTGAATTCCGGTCTCCC
DNA 2: TGGTGGCTACGACGGGATT
B23: UUAUUUA (DNA:RNA)
RNA: B6 RNA with C25U, G26U, A28U, A29U
DNA 1: CAATCTGAATTCCGGTCTCCC
DNA 2: TGGTGGCTACGACGGGATT
B24: GGUAGUG (DNA:RNA)
RNA: B6 RNA with C25G, A27U, A29G, A31G
DNA 1: CAATCTGAATTCCGGTCTCCC
DNA 2: TGGTGGCTACGACGGGATT
B25: CUUUCGU (DNA:RNA)
RNA: B1 RNA with U25C, C26U, G28U, C31U
DNA 1: CAATCTGAATTCCGGTCTCCC
DNA 2: TGGTGGCTACGACGGGATT
B26: AGGUGUG (DNA:RNA)
RNA: B6 RNA with C25A, A27G, A28U, A29G, A31G
DNA 1: CAATCTGAATTCCGGTCTCCC
DNA 2: TGGTGGCTACGACGGGATT
B27: UCGUCAA (DNA:RNA)
RNA: B1 RNA with U27G, G28U, G30A, C31A
DNA 1: CAATCTGAATTCCGGTCTCCC
DNA 2: TGGTGGCTACGACGGGATT
B28: CCCAUGU (DNA:RNA)
RNA: B6 RNA with G26C, A27C, A29U, U30G, A31U
DNA 1: CAATCTGAATTCCGGTCTCCC
DNA 2: TGGTGGCTACGACGGGATT
B29: GGAGGGA (DNA:RNA)
RNA: B6 RNA with C25G, A28G, A29G, U30G
DNA 1: CAATCTGAATTCCGGTCTCCC
DNA 2: TGGTGGCTACGACGGGATT
B30: GAAUACG (DNA:RNA)
RNA: B6 RNA with C25G, G26A, A28U, U30C, A31G
DNA 1: CAATCTGAATTCCGGTCTCCC
DNA 2: TGGTGGCTACGACGGGATT
B31: UACGUCG (DNA:RNA)
RNA: B1 RNA with C26A, U27C, C29U, G30C, C31G
DNA 1: CAATCTGAATTCCGGTCTCCC
DNA 2: TGGTGGCTACGACGGGATT

Target: T1, RBFOX1 RRM RbFoxmut (Fox-RRM*)
Test: EMSA; HiTS-Eq, 1 nM pool, 10 min; buffer printed only for the single-RNA assays: 10 mM Tris pH 7.5, 150 mM NaCl, 3.4 mM EDTA, 0.001% NP-40, 30 C
Settings: tags: His6 N-terminal (pET28a); label: 5' 32P
Method in brief: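 Purified RbFox RRM, wild type or mutant, was incubated for 10 min in 50 µL with 1 nM of a 5′-radiolabelled RNA pool carrying 7 randomized nucleotides, whose flanks were annealed to DNA oligonucleotides, over a series of increasing protein concentrations. Unbound RNA was resolved on 8% native PAGE, cut out, reverse-transcribed, barcoded by PCR and sequenced on an Illumina HiSeq 2500. Relative association constants were derived from changes in read counts for each RNA species versus the control reaction and normalised to the cognate motif.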

Binder	binding signal
B1	0.12 KA relative to UGCAUGU
B2	0.183 KA relative to UGCAUGU
B3	0.0861 KA relative to UGCAUGU
B4	0.0627 KA relative to UGCAUGU
B5	0.123 KA relative to UGCAUGU
B6	0.102 KA relative to UGCAUGU
B7	0.292 KA relative to UGCAUGU
B8	0.112 KA relative to UGCAUGU
B9	0.061 KA relative to UGCAUGU
B10	0.145 KA relative to UGCAUGU
B11	0.112 KA relative to UGCAUGU
B12	0.351 KA relative to UGCAUGU
B13	0.0891 KA relative to UGCAUGU
B14	0.0801 KA relative to UGCAUGU
B15	0.0941 KA relative to UGCAUGU
B16	0.348 KA relative to UGCAUGU

Binder	binding signal
B17	0.884 KA relative to UGCAUGU
B18	0.0891 KA relative to UGCAUGU
B19	0.0944 KA relative to UGCAUGU
B20	0.0603 KA relative to UGCAUGU
B21	0.14 KA relative to UGCAUGU
B22	0.148 KA relative to UGCAUGU
B23	0.107 KA relative to UGCAUGU
B24	0.251 KA relative to UGCAUGU
B25	0.0941 KA relative to UGCAUGU
B26	0.332 KA relative to UGCAUGU
B27	0.0917 KA relative to UGCAUGU
B28	0.102 KA relative to UGCAUGU
B29	0.0531 KA relative to UGCAUGU
B30	0.135 KA relative to UGCAUGU
B31	0.0931 KA relative to UGCAUGU
